# Measured values reported in PubChem BioAssay AID743279 (National Center for Advancing Translational Sciences (NCATS), 2014).
# The campaign covered roughly 360,000 compounds. About 17,000 (4.7%) were called active. Inconclusive results, whose numbers are uncertain, are shown with a selection of clear calls. Rule as the data show it: active = activity change below about -50%; inconclusive = mostly about -30% to -49%; inactive = weaker than that.
# Test: qHTS for Inhibitors of Inflammasome Signaling: IL-1-beta AlphaLISA Primary Screen
# Details: THP-1 LPS/ATP IL-1B secretion, 16 h; at 57.5 µM, stronger effect = lower value
# Summary of the method: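 Secreted IL-1B measured by AlphaLISA bead assay after 16 h compound exposure of THP-1 cells; compounds (final up to 57.5 uM) added 1 h before LPS (250 ng/mL) and ATP (1.25 mM) stimulation; lower signal means less secretion.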
# % is scaled to controls: 0 for no effect and ±100 for the full control effect.
row,SMILES,activity change
1,CSCCC(NS(=O)(=O)c1ccc(Cl)cc1)C(=O)OCC(=O)c1c(C)[nH]c2ccccc12 (configuration not stated),active: -85.8%
2,CCOC(=O)C1CCN(Cc2ccc(OC)cc2OC)CC1,inconclusive: -36.7%
3,Cc1cc(SCC(=O)Nc2ccc(O)cc2)n2ncc(-c3ccccc3)c2n1,active: -51.1%
4,CC1C(=O)N(Cc2ccccc2F)c2ccccc2N1C(=O)c1c(F)cccc1F (configuration not stated),inconclusive: -31.4%
5,CC(C)NC(=O)Nc1cccc2c1O[C@H](CN(C)C(=O)Nc1ccc(C(F)(F)F)cc1)[C@@H](C)CN([C@H](C)CO)C2=O,inconclusive: -30.5%
6,CCCn1nnc(NC(=O)Cc2ccccc2)n1,inconclusive: -31.3%
7,CCN(CCCNC(=O)CCCOc1cc(=O)n(C)c2ccccc12)Cc1ccccc1,inactive: 17.4%
8,COc1ccc(C(=O)C2CCN(C(=O)c3ccc(OC)cc3)CC2)cc1,inconclusive: -37.8%
9,CC(=O)Nc1cc2c(nc1C)nc(C)n2Cc1ccc(Br)cc1,inconclusive: -40.1%
10,Cn1c(NC(=O)c2cccnc2)nc2ccccc21,inconclusive: -48.6%
11,Cc1ccc(-c2nnc(N(C)C(=O)c3ccncc3)s2)cn1,inconclusive: -30.4%
12,COc1ccc(Oc2nnnn2-c2ccccc2)cc1,inactive: -20%
13,O=c1c2c3c(sc2ncn1-n1cccc1)CCCCC3,inconclusive: -35%
14,O=C(CCn1c(=O)[nH]c2ccccc2c1=O)NCCCN1CCN(c2cccc(Cl)c2)CC1,inconclusive: -35.9%
15,CN1CCCC1CCOC(C)(c1ccccc1)c1ccc(Cl)cc1 (configuration not stated),inconclusive: -41.3%
16,Cc1cc(C)n2cc(CSc3ccc(Cl)cc3)nc2n1,inconclusive: -31.7%
17,O=C(N/N=C/c1cn(-c2ccccc2)nc1-c1cccnc1)c1ccc(F)cc1,inconclusive: -35.2%
18,CCOc1ccc(Nc2c3c(nc4ncnn24)CC(C)CC3)cc1 (configuration not stated),inactive: 20.3%
19,COc1ccccc1OCCNC(=O)c1cc(=O)[nH]c2ccccc12,inconclusive: -40.3%
20,CN1CCN(c2ccccc2NC(=O)c2sc3ccccc3c2Cl)CC1,inconclusive: -34.6%
21,CC(=O)c1ccc(Nc2nc(C(N)C(C)C)cs2)cc1 (configuration not stated),inconclusive: -35.2%
22,CCN(CC)S(=O)(=O)c1ccc(O)c(C(=O)OCC(=O)N2c3ccccc3CC2C)c1 (configuration not stated),inactive: -5.42%

row,SMILES,activity change
1,CCc1ccc(C(=O)Nc2ccc(C)c(NS(C)(=O)=O)c2)cc1,inconclusive: -42.2%
2,O=C(c1ccc(-c2ccccc2)c(F)c1)C1CCCN(C(=O)c2cncs2)C1 (configuration not stated),inconclusive: -41.8%
3,CN1C(c2ccc(F)cc2)=CS/C1=C(/C#N)c1nnc2n1-c1ccccc1SC2,active: -68.6%
4,C=CCNc1nc(NCc2ccco2)nc(OCC)n1,inactive: -11.3%
5,COc1ccc(C(=O)COc2ccc(F)cc2)c(O)c1,inconclusive: -40.5%
6,O=C1/C(=C/c2ccc(O)cc2)COc2ccccc21,active: -104%
7,O=C(Nc1ccc(C(=O)N2CCOCC2)cc1)c1ccccc1Cl,inconclusive: -34.1%
8,CCOC(=O)c1ccc(NC(=O)C2(c3ccc(OC)cc3)CCOCC2)cc1,inconclusive: -31.2%
9,O=C(Nc1cccc(-n2cnnn2)c1)c1ccc(Cl)cc1Cl,inconclusive: -31.1%
10,COC(=O)C(Cc1ccccc1)NC(=O)c1cc(S(=O)(=O)N(C)C)ccc1Cl (configuration not stated),active: -75.1%
11,COc1cccc(C#CC2=CC(=O)C[C@H](c3ccc(F)cc3)C2)c1,active: -93.1%
12,O=C(Nc1ccc2[nH]ncc2c1)c1cccc(F)c1,inconclusive: -42.1%
13,N#C/C(=C\c1c(Cl)cccc1Cl)c1nc2ccccc2o1,inconclusive: -49.9%
14,O=C(Cc1cccc(NC(=O)C2CCCN(C(=O)CCc3ccccc3)C2)c1)Nc1ccc(C(=O)N2CCCCC2)cc1 (configuration not stated),active: -108%
15,CC(C)N(C(=O)CN1CCC(c2nc3ccccc3[nH]2)CC1)C(C)C,inactive: -4.01%
16,Cc1ccccc1-n1c(SCc2ccccn2)nc2n[nH]c(C)c2c1=N,inconclusive: -46.7%
17,COc1ccc(-c2cc(OC)c3c(C)oc(C)c3c(=O)c2)cc1OC,inconclusive: -33.8%
18,COc1ccccc1-c1sc2ccccc2c1C#Cc1ccc(N(C)C)cc1,inactive: 2.65%
19,COc1ccc(-n2c(N)c(C(=O)NCc3ccco3)c3nc4ccccc4nc32)cc1,inconclusive: -35.1%
20,Cc1ccc(-n2c(C)cc(/C=N/NC(=O)CN(c3ccc(C)cc3C)S(C)(=O)=O)c2C)cc1,inconclusive: -35.8%
21,OC(CNCCc1ccccc1)COc1ccc(OCC(O)CNCCc2ccccc2)cc1 (configuration not stated),active: -91.1%
22,CCNC(=O)COc1ccc(F)cc1C(=O)c1cnn(-c2ccccc2)c1,inconclusive: -32.8%

row,SMILES,activity change
1,Cc1ccc(C)c(S(=O)(=O)N2CCN(C(=O)CCNS(=O)(=O)c3ccc(C)c(C)c3)CC2)c1,inactive: -4.9%
2,CCCCn1c(SCc2nc3ccccc3s2)nc2cc(S(N)(=O)=O)ccc21,inconclusive: -45.4%
3,COC(=O)N[C@H](c1ccccc1)[C@@]1(C)C[C@@H]1[C@@H](C)C(=O)Nc1ccc2ccccc2c1,inactive: -6.26%
4,O=C(Nc1ccc(N2CCOCC2)c(F)c1)c1cccs1,inconclusive: -30.4%
5,Cc1[nH]c2ccc(F)cc2c1CCN(Cc1ccncc1)C(=S)Nc1cccc(F)c1,inconclusive: -38.5%
6,CCCCOc1ccc(C(=O)NCC(=O)NCC(c2ccc(OC)cc2)N2CCCC2)cc1 (configuration not stated),inconclusive: -33%
7,CC(=O)N1CCN=C1SCc1cccc(Cl)c1,inconclusive: -30.4%
8,CC(Oc1ccccc1)C(=O)N1CCc2ccccc2C1 (configuration not stated),inactive: 0%
9,CCCCn1c(N2CCC(Cc3ccccc3)CC2)nc2c1c(=O)[nH]c(=O)n2C,inconclusive: -32.3%
10,O=C(NCCCO)c1cc2c(cn1)[nH]c1ccccc12,inconclusive: -35.7%
11,CCCCCN(C(=O)CCC(=O)OCc1ccccc1C(F)(F)F)c1c(N)n(CCCC)c(=O)[nH]c1=O,inconclusive: -30.3%
12,O=C(CCl)NC(Cc1ccccc1)c1ccccc1 (configuration not stated),active: -95.4%
13,COCCNC(=O)C1(C)CCCN(Cc2noc(-c3ccccc3OC)n2)C1 (configuration not stated),inactive: -5.51%
14,CCN(CC)S(=O)(=O)c1ccc(C(=O)NNC(=O)c2csc(N3CCOCC3)n2)cc1,inactive: 6.2%
15,CSc1ccc(NC(=O)NCCCN2CCC(Cc3ccccc3)CC2)cc1,active: -54.3%
16,CC1(C)CC(NC(=O)C2CCN(S(=O)(=O)c3ccc(Cl)c(C(F)(F)F)c3)CC2)CC(C)(C)N1,inconclusive: -34.9%
17,COc1ccc(CN2CCc3ccc(NC(=O)CCc4ccccc4OC)cc3C2)c(O)c1,inconclusive: -45.4%
18,COC(=O)c1cc(N2CCNCC2)nc2ccccc12,inconclusive: -47.7%
19,COCCn1c(SCC(=O)N(C)c2c(N)n(Cc3ccccc3)c(=O)[nH]c2=O)nnc1-c1cccc(C)c1,inactive: 22.1%
20,CCCOc1ccc(C(=O)CCN2CCCCC2)cc1,inconclusive: -42.4%
21,CC(C)CC1C(C#N)=C(N)OC2=C1C(=O)CC(c1ccccc1)C2 (configuration not stated),inconclusive: -31.4%
22,CCOC(=O)c1cc(-c2ccccc2)n(CC(=O)Nc2ccc(OC)cc2)c1C,inactive: -9.32%

row,SMILES,activity change
1,CCCCOC(=O)c1ccc(NC(=O)C2CCCO2)cc1 (configuration not stated),inconclusive: -30.3%
2,Cc1cccc(C(=O)N(CC(=O)Nc2sc(C)c(C)c2C(N)=O)C2CCCC2)c1,inconclusive: -32.5%
3,Cc1cccc(-n2ncc3c(NCCc4ccc(S(N)(=O)=O)cc4)ncnc32)c1,inactive: -12.6%
4,CCOC(=O)c1cc(NCc2cccs2)ccc1N1CCOCC1,inactive: -29.4%
5,COC(=O)[C@]1(CC(C)C)N[C@H](c2ccc(SC3CCCCC3)c(OC)c2)[C@@H]2C(=O)N(C)C(=O)[C@@H]21,inconclusive: -36.3%
6,Cc1cc(=O)[nH]c(N/N=C/c2ccc(-c3ccc(F)cc3)o2)n1,inactive: 13.7%
7,CCN(CC)C(=O)C1=C(C)Nc2nc3ccccc3n2C1c1cccc(OC)c1 (configuration not stated),inconclusive: -30.5%
8,CSc1nc2c(c(=O)n1-c1ccc(C)cc1)SCC2,inconclusive: -31.4%
9,CCc1nnc(NC(=O)c2cccc(NC(=O)C(C)C)c2)s1,inconclusive: -34.4%
10,COc1ccc(-c2c(C)cc3oc(=O)cc(-c4ccccc4)c3c2C)cc1,inactive: 9.79%
11,Cn1cncc1C#Cc1ccc2c(=O)c3ccccc3oc2c1,inconclusive: -49.2%
12,CCc1ccccc1NC(=O)CN(C)C(=O)CSc1nnc(Nc2cccc(C)c2C)s1,inconclusive: -33.5%
13,O=C(NCc1ccccn1)[C@@H]1CCCN1C(=O)[C@@H]1CCCN1C(=O)c1ccccc1,inactive: 0%
14,O=C(Nc1ccc(S(=O)(=O)N2CCOCC2)cc1)c1nn(-c2ccc(F)cc2)ccc1=O,inconclusive: -35.3%
15,COC(=O)c1ccc2nc(-c3ccc(F)cc3)c(Cc3ccccc3C(F)(F)F)n2c1,inactive: 49.6%
16,COc1cc2c(cc1OC)C(COc1ccc(C(C)C)cc1)NCC2 (configuration not stated),inactive: -20.4%
17,O=C(Nc1ccc(Cl)cc1)NC1CCCC1Cc1ccco1 (configuration not stated),active: -89.4%
18,COc1ccc(Cl)cc1Nc1nc(-c2cccnc2)cs1,inconclusive: -30.9%
19,Cc1ccc(C(=O)N2CC=C(c3ccccc3)CC2)s1,inconclusive: -30.3%
20,COc1cc(NC(=O)CSc2nnnn2C2CCCC2)cc(OC)c1,inactive: 21%
21,COc1ccc(-c2nnc3sc(-c4cccs4)nn23)cc1OC,active: -52.4%
